Laboratory results taken from article PMC4336329 (PLoS ONE, 2015).
The campaign covered roughly 310,000 compounds. About 2,200 (0.71%) showed an effect of 50% or more. Effects have a minus sign here. The list shows a part of the results.

Target: human ether-à-go-go-related gene (hERG) potassium channel (human, UniProt Q12809)
Experiment: primary screen, population patch clamp on CHO cells stably expressing hERG

human ether-à-go-go-related gene (hERG) potassium channel, sequence (Q12809 whole entry, looked up): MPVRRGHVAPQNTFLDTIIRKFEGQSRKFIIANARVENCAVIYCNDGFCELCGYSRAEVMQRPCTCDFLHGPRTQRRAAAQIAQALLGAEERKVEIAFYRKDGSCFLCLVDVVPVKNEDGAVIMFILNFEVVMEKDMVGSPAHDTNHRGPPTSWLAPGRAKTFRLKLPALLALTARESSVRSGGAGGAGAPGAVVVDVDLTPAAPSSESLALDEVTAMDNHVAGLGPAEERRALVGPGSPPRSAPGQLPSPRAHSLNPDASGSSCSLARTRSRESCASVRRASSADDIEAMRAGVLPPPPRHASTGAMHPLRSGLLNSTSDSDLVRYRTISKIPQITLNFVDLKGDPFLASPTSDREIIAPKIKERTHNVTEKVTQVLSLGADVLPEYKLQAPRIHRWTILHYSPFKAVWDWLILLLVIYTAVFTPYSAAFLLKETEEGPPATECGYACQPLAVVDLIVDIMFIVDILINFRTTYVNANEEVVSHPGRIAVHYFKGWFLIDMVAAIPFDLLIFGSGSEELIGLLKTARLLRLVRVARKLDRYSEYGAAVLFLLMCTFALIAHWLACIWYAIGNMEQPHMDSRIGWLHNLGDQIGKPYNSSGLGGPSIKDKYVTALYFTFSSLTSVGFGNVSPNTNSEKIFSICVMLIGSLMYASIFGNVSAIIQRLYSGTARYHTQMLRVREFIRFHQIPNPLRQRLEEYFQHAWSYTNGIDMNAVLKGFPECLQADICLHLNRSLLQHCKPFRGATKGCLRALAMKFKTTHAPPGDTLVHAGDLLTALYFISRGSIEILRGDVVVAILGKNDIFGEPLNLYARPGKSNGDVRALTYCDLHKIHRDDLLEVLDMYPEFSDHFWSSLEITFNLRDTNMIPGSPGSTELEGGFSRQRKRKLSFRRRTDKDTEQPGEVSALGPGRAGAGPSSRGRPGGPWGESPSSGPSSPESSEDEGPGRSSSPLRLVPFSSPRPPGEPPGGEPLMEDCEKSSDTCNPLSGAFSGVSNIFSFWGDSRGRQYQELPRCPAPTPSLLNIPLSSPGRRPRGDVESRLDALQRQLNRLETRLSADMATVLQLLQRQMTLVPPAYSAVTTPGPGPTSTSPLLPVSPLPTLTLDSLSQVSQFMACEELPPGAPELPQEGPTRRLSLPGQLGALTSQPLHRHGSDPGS

Structure (SMILES) | hERG current change (%, negative = inhibition) at 1uM [%]
Cc1ncoc1C(=O)N1CCCC(C(=O)c2ccc3c4c(cccc24)CC3)C1 (centres unmarked) | -1.71
COc1ccccc1CNc1nc2ccccc2n1CCN1CCCCC1 | -29.9
O=C(Nc1cccnc1Cl)c1ccc(Cl)cc1 | 13.4
COc1ccc(N2CCCC2)c(NC(=O)c2ccc(Br)o2)c1 | 12.3
COc1ccc(Nc2nnc(Cc3ccc(Cl)cc3)c(=O)[nH]2)c(OC)c1 | 16
O=C(CCCC(=O)OCC(F)(F)C(F)F)Nc1ccccc1F | 6.24
COc1ccc(C(=O)C(CCC(CNC(C)(C)C)C(=O)c2ccc(OC)cc2)CNC(C)(C)C)cc1.Cl (centres unmarked) | -0.112
COc1ccccc1C(=O)NC1CCSc2ccccc21 (centres unmarked) | 11.4
Cc1ccc(C)c(N2CCN(C(=O)c3ccc4c(c3)c(C)c(C)n4C)CC2)c1 | 9.85
CCN1CCCC1CNC(=O)c1cc2cc(F)ccc2[nH]1 (centres unmarked) | -53.8
c1ccc(COc2ccc(-c3csnn3)cc2)cc1 | 12.5
CC(Sc1ccc([N+](=O)[O-])cn1)C(=O)Nc1nccs1 (centres unmarked) | 10.6
C[C@@H]1C=CC(=O)O[C@@H]1c1ccc(C(F)(F)F)cc1 | 3.58
Cn1cccc1C(=O)C(=O)Nc1cccc(Cl)c1Cl | 13.8
COc1ccc(N2CCN(C(=O)COC(=O)c3ccc(-n4nc(C)cc4C)cc3)CC2)cc1 | 3.11
Nn1c(CSc2nc3ccccc3o2)nnc1CSc1nc2ccccc2o1 | 13.7
COc1cccc(-c2cc(C(=O)N3CCN(C(c4ccccc4)c4ccccc4)CC3)no2)c1 | 12.5
Cc1ccccc1CSCCNC(=O)CSCc1ccc([N+](=O)[O-])cc1 | -7.7
OC[C@H]1O[C@@H](n2cnc3c(Nc4ccccc4)ncnc32)[C@H](O)[C@@H]1O | 7.74

Structure (SMILES) | hERG current change (%, negative = inhibition) at 1uM [%]
O=C(CSC1=NCCS1)Nc1nc2ccccc2s1 | -0.0242
CCc1ccc(NC(=O)Cn2c(SC)nc3ccccc32)cc1 | 10.1
Cc1csc(Sc2ccc([N+](=O)[O-])cc2C(=O)OCC(=O)NC2CCCC(C)C2C)n1 (centres unmarked) | -8.58
CN(CP(=O)(O)CN(C)S(C)(=O)=O)S(C)(=O)=O | 3.77
CCOCCCNC(=S)N1CCN(C(=O)C(=O)Nc2ccc(C(=O)OC)cc2)CC1 | -12
Cc1cc(/C=C2\C(=O)NC(=O)N(Cc3ccco3)C2=O)c(C)n1-c1ccc(C(=O)O)cc1 | 13.8
CC(C)C[C@@H](CO)N1CCN(Cc2ccccc2)CCC1=O | 9.54
COc1cc2c(cc1OC)C(NNC(=O)c1ccc(Br)o1)=NC(C)(C)C2 | 16.9
CC(C)C(NS(=O)(=O)c1ccccc1)C(=O)N1CCCCCC1 (centres unmarked) | 18.1
COCC(=O)N1CCC(Oc2cccc(C(=O)NCc3ccccn3)c2)CC1 | 14.8
COc1ccc(N(C(=O)c2snc(C(N)=O)c2N)C(C(=O)NC2CCCC2)c2ccc(C)o2)c(OC)c1 (centres unmarked) | 11
CCOc1ccccc1N(CC(=O)NC(C)(C)C)C(=O)c1ccc(CN2CCOCC2)o1 | 13.7
COc1ccc(-n2c(SC(C)C(=O)Nc3ccc(NC(C)=O)cc3)nc3ccccc3c2=O)cc1OC (centres unmarked) | 14.1
CCN(CC)CCNC(=O)c1ccc(NC(=O)/C=C/c2ccc3ccccc3n2)cc1 | 8.45
O=C(N/N=C1/CCc2ccccc21)C1CC1 | 6.47
O=C(CCl)N1c2ccccc2OCC1c1ccccc1 (centres unmarked) | 3.86
CCOc1ccc(CCNC(=O)COC(=O)c2cccs2)cc1OCC | -17.3
O=C(Oc1ccc(-c2csnn2)cc1)C1CC1 | 9.89
O=C(COc1ccc(Cl)cc1)Nc1ccc2c(c1)nc1n2CCOC1 | -18.4

Structure (SMILES) | hERG current change (%, negative = inhibition) at 1uM [%]
N#Cc1ccccc1COC(=O)c1cc(=O)c2ccccc2o1 | 15.5
CC1(C)SC(=S)N(/N=C/c2cccnc2)C1N(O)C(=O)Nc1ccccc1 (centres unmarked) | -1.2
CC1CCc2c(sc(NC(=O)CSc3nc4c(c(C(F)(F)F)n3)CCc3ccccc3-4)c2C(N)=O)C1 (centres unmarked) | 20.1
CCOC(=O)c1nn(-c2ccc(C)cc2)c(=O)cc1OCC(=O)Nc1cccc(C)c1 | 15.3
CN(CCC1CCOCC1)C(=O)C1CCC(=O)N(CCc2ccc(Cl)cc2)C1 (centres unmarked) | -25.2
Cc1c2ccncc2c(C)c2c1[nH]c1ccccc12 | 8.35
CON(C)c1nc(Oc2ccc(=O)[nH]n2)nc(N(C)C)n1 | -3.26
CN(C(=O)COC(=O)C1CCN(S(=O)(=O)c2cccs2)CC1)C1CCS(=O)(=O)C1 (centres unmarked) | 1.96
COc1ccc(Cc2nc(C(=O)Nc3ccc(OC)cc3)cs2)cc1 | 11.5
CCOC(=O)Cn1c(=O)c(-c2ccccc2N)nc2ccccc21 | 11.2
CCc1cccc(NC(=S)Nc2ccc(CN3CCOCC3)cc2)c1 | 9.4
CCc1nnc(NC(=O)CSc2ncc(-c3ccccc3)[nH]2)s1 | -3.47
Cn1c(COc2ccccc2)nnc1SCC(=O)NC1CCCC1 | 7.08
CC1CCCN(C(=O)CSc2nnc3n(C4CCCC4)c(=O)c4ccccc4n23)C1 (centres unmarked) | -0.92
CCCCN(CCCC)/C(N)=N/c1nc(C)cc(C)n1 | -51.8
C=CCNc1sc(C(=O)c2ccc(Br)s2)c(N)c1C#N | 11.7
Cc1sc2c(c1C)C(O)=C(C(=O)Nc1ccccc1)S(=O)(=O)N2C | 2.62
CC(=O)Nc1ccc(-c2nnc(SCC(=O)NCc3ccco3)n2C)cc1 | 13.6
